Measured values published in PubChem BioAssay AID504845 (National Center for Advancing Translational Sciences (NCATS), 2011).
The campaign covered roughly 390,000 compounds. About 150 (0.038%) were called active. The shares of active, inactive and inconclusive entries below differ from those in the screen. Calls follow the shape of the dose curve; as a rule, active = well fitted inhibition curve with a large enough effect; inconclusive = small, poorly fitted or top-dose-only effect; inactive = no such curve, though single readings can be large or run the other way. Potencies beside an inconclusive call are fits to weak or partial responses and may not hold up.

Biological target: Regulator of G-protein signaling 4 (Homo sapiens) (UniProt P49798)
Chain of UniProt P49798 (P49798 whole entry, looked up): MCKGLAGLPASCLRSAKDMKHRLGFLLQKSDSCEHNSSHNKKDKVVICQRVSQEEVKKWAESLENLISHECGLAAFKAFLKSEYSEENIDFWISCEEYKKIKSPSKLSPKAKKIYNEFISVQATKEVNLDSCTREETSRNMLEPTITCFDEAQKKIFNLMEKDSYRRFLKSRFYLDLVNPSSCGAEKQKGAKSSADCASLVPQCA
Experiment: Inhibitors of Regulator of G Protein Signaling (RGS) 4: qHTS; also: nearly all actives have a fitted effect of over 75% in size
Settings: Transcreener GDP fluorescence polarization, RGS4-accelerated GTP hydrolysis; series mostly up to 114 µM; activity change, negative = inhibition: at the top concentration
How it was run: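 MLSMR compounds (23 nl, pin-transferred) preincubated 10 min at room temperature with a 500nM (2x) first reagent, then RGS4 at 900nM (2x) plus Transcreener GDP mix added; fluorescence polarization (620/688 nm) read before and after 90 min at 30 °C.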
% is scaled to controls: 0 for no effect and ±100 for the full control effect; potency is read from the fitted curve at half-maximal effect; tags tell the direction and shape of the fitted curve.

With `Oc1cccc(C=Nc2cccc3ccccc23)c1O` as the compound, how does the Potency read?
Its Potency is inconclusive: 50.1 µM [inhibitor, partial curve, poor fit].

With `CC/C(=N\Nc1ccc([N+](=O)[O-])cc1[N+](=O)[O-])c1ccc(O)cc1` as the compound, how does the “activity change, negative = inhibition” value read?
The value was inactive: -14.5%.

`CC(CCc1ccccc1)NC(=O)Cn1c(=O)nc(-c2ccccc2)c2ccccc21` (configuration not stated) was tested. Which “activity change, negative = inhibition” value did it give?
Its value is inactive: 27.3%.

`COCC(C)NC(=O)c1cccc(Cl)c1` (configuration not stated) was tested. Which activity change, negative = inhibition did it give?
The activity change, negative = inhibition was inactive: 3.11% [at 11.4 µM].

For `O=C(NCc1cccnc1)c1ccc(S(=O)(=O)N2CCOCC2)cc1`, which “activity change, negative = inhibition” value is on record?
The value was inactive: 9.24%.

How did the “activity change, negative = inhibition” value turn out when `CC(C)(C)OC(=O)N(CCc1ccccc1)Cc1cccc(OCc2cccc(NC(=O)C3CCCC3)c2)c1` was run?
The value was inactive: 0.524%.

With `COc1cc(/C=C2/C(=O)NN(c3ccc(Cl)cc3)C2=O)ccc1OC(=O)c1ccco1` as the compound, how does the Potency read?
Its Potency is inconclusive: 20 µM [inhibitor, full curve, poor fit].

For `COC(=O)C1=C(C(=O)OC)N2C=CC=CC2(C)C(C(=O)OC)=C1C(=O)OC` (configuration not stated), which “activity change, negative = inhibition” value is on record?
Its value is inactive: -8.78%.

With `CC1=NN(c2ccc(C)cc2C)C(=O)C1C(c1ccccc1O)C1C(=O)N(c2ccc(C)cc2C)N=C1C` (configuration not stated) as the compound, how does the Potency read?
Its Potency is inconclusive: 79.4 µM [inhibitor, partial curve, poor fit].

For `Cc1ccc(S(=O)(=O)NCCOC(=O)Nc2sc(=S)n(C)c2C)cc1`, which Potency is on record?
The Potency was inconclusive: 20 µM [inhibitor, full curve, poor fit].

For `CSCCC(NC(=O)c1ccc(Cl)c([N+](=O)[O-])c1)C(=O)N1CCN(C/C=C/c2ccccc2)CC1` (configuration not stated), which “activity change, negative = inhibition” value is on record?
Its value is inactive: -23.3%.

`C#CCOCCOCCOCCNc1nc(N2CCN(C(=O)CCCCCCCCCCNC(=O)Cn3cc(C[C@@H](C)O)nn3)CC2)nc(N2CCN(C(=O)CCCCCCCCCCNC(=O)Cn3cc(C[C@@H](C)O)nn3)CC2)n1` was tested. Which Potency did it give?
Its Potency is inconclusive: 50.1 µM [inhibitor, partial curve, poor fit].

For `O=C1c2ccccc2C(Nc2ccc(F)c(Cl)c2)N1Cc1ccco1` (configuration not stated), which Potency is on record?
Its Potency is inconclusive: 44.7 µM [inhibitor, partial curve, poor fit].

`Cc1cccc(OCCNc2cc(N3CCN(CCO)CC3)ccc2[N+](=O)[O-])c1` was tested. Which Potency did it give?
The Potency was inconclusive: 79.4 µM [inhibitor, partial curve, poor fit].

Which “activity change, negative = inhibition” value does the source give for `Cc1c(NS(C)(=O)=O)cccc1-c1nc2cccnc2s1` here?
The value was inactive: -19.2%.

For `CC1(C)CC(=O)C(=Cc2cn(CCC#N)nc2-c2ccc(Cl)cc2)C(=O)C1`, which Potency is on record?
The Potency was inconclusive: 25.1 µM [inhibitor, full curve, poor fit].

For `CCCN1CCc2c(sc(NC(=O)c3ccc(S(=O)(=O)N4CCCC4)cc3)c2C(N)=O)C1`, which Potency is on record?
Its Potency is inconclusive: 31.6 µM [inhibitor, full curve, poor fit].

How did the “activity change, negative = inhibition” value turn out when `Fc1ccc(C2=CC(c3ccco3)n3ncnc3N2)cc1` (configuration not stated) was run?
Its value is inactive: -5.18%.

For `Cc1ccc(NC2=C(N3CCCCC3)C(=O)c3ccccc3C2=O)cc1`, which “activity change, negative = inhibition” value is on record?
The value was inactive: -22.9%.

With `O=C(CCn1nnc2ccccc21)N1CCC(O)(c2cccc(F)c2)CC1` as the compound, how does the Potency read?
The Potency was inconclusive: 44.7 µM [inhibitor, partial curve, poor fit].

`CN(C)CCNc1ccc2nnn3c4ccc(O)cc4c(=O)c1c23` was tested. Which “activity change, negative = inhibition” value did it give?
The value was inactive: -26.4%.

With `CC(C)c1ccccc1-n1c(SCc2cc(=O)oc3ccc4ccccc4c23)nnc1-c1cccnc1` as the compound, how does the “activity change, negative = inhibition” value read?
Its value is inactive: -10.6%.

Which “activity change, negative = inhibition” value does the source give for `O=C(C1=C[C@H](c2csc3ccccc23)C[C@H](OCc2ccc(CO)cc2)O1)N1CCN(Cc2ccc3c(c2)OCO3)CC1` here?
Its value is inactive: 7.49%.

Which “activity change, negative = inhibition” value does the source give for `Cc1ccnc(SCC(=O)N2CCCc3ccccc32)n1` here?
Its value is inactive: -12%.

`O=C(COc1ccc(Br)cc1CNCCCN1CCOCC1)Nc1ccccc1` was tested. Which Potency did it give?
Its Potency is inconclusive: 89.1 µM [inhibitor, single point].

Which Potency does the source give for `CN(C)N=Nc1ccc2nc[nH]c2c1` here?
Its Potency is inconclusive: 50.1 µM [inhibitor, partial curve, poor fit].

Which “activity change, negative = inhibition” value does the source give for `Cc1ccc(C(=O)c2c3ccc(N)cc3nn2CCC(N)=O)cc1` here?
Its value is inactive: -36.5%.

With `CCOc1ccccc1CNc1ccc(O)cc1` as the compound, how does the Potency read?
Its Potency is inconclusive: 56.2 µM [inhibitor, partial curve, poor fit].

With `CCOCc1nnc(NC(=O)c2ccco2)s1` as the compound, how does the “activity change, negative = inhibition” value read?
Its value is inactive: -0.339%.

For `CCCCOC(=O)c1ccc(NC(=S)NC(=O)c2ccco2)cc1`, which Potency is on record?
The Potency was inconclusive: 50.1 µM [inhibitor, partial curve, poor fit].

With `CC(C)CC(NS(=O)(=O)OCC(Cl)(Cl)Cl)c1ccccc1` (configuration not stated) as the compound, how does the “activity change, negative = inhibition” value read?
The value was inactive: -5.96%.

With `O=C(CN1C(=O)C2(SCC(=O)N2c2cccc(Cl)c2)c2ccccc21)NCc1ccccc1` (configuration not stated) as the compound, how does the “activity change, negative = inhibition” value read?
Its value is inactive: -20.9%.

How did the Potency turn out when `CCNC(=O)C1CCCN1C(=O)C(CCCN=C(N)N)NC(=O)C(CC(C)C)NC(=O)C(Cc1cn(Cc2ccccc2)cn1)NC(=O)C(Cc1ccc(O)cc1)NC(=O)C(CO)NC(=O)C(Cc1c[nH]c2ccccc12)NC(=O)C(Cc1cnc[nH]1)NC(=O)C1CCC(=O)N1` (configuration not stated) was run?
The Potency was inconclusive: 89.1 µM [inhibitor, single point].

`O=C(Nc1nc2ccc(F)cc2s1)c1nc(S(=O)(=O)Cc2ccccc2F)ncc1Cl` was tested. Which Potency did it give?
The Potency was inconclusive: 10 µM [inhibitor, full curve, poor fit].

How did the Potency turn out when `CC(=O)Nc1cccc(NC(=O)Cc2cccs2)c1` was run?
The Potency was inconclusive: 79.4 µM [inhibitor, partial curve, poor fit].

With `CCCC(=O)N(c1ccc2oc(=O)sc2c1)S(=O)(=O)c1cccs1` as the compound, how does the Potency read?
Its Potency is inconclusive: 44.7 µM [inhibitor, partial curve, poor fit].

`Cc1nn(C)cc1/C=N\NC(=O)Cc1ccc([N+](=O)[O-])cc1` was tested. Which Potency did it give?
Its Potency is inconclusive: 89.1 µM [inhibitor, single point].

Which “activity change, negative = inhibition” value does the source give for `Cc1nn(-c2cccc(Cl)c2)c(Cl)c1/C=N/NC(=O)c1cccnc1` here?
The value was inactive: -49.5%.

How did the “activity change, negative = inhibition” value turn out when `Cc1ccc(C(=O)Nc2ccon2)cc1S(=O)(=O)N1CCOCC1` was run?
Its value is inactive: 6.09%.

How did the Potency turn out when `CCOc1ccccc1NC(=S)Nn1cnnc1` was run?
The Potency was inconclusive: 50.1 µM [inhibitor, partial curve, poor fit].

Which Potency does the source give for `COc1ccc(/C=C2\Oc3cc(OCC(=O)N4CCC[C@H]4C(=O)O)ccc3C2=O)c(OC)c1` here?
The Potency was inconclusive: 17.8 µM [inhibitor, full curve, poor fit].

With `Cc1ccc(/C=C(\C#N)C(=O)Nc2cccc(Br)c2)o1` as the compound, how does the “activity change, negative = inhibition” value read?
Its value is inactive: -7.18%.

For `C#CCN1C=C(C(=O)OCC)C(C)N(Cc2ccccc2I)S1(=O)=O` (configuration not stated), which “activity change, negative = inhibition” value is on record?
Its value is inactive: 15%.

`CCOc1ccc(N2C(=O)CC(Sc3ccccc3C(=O)O)C2=O)c([N+](=O)[O-])c1` (configuration not stated) was tested. Which Potency did it give?
The Potency was inconclusive: 79.4 µM [inhibitor, partial curve, poor fit].

How did the Potency turn out when `CCc1ccc(C2CC(=O)N3CN(c4ccccc4)CSC3=C2C#N)cc1` (configuration not stated) was run?
The Potency was inconclusive: 17.8 µM [inhibitor, full curve, poor fit].

`c1cc(N2CCCC2)ccc1C(c1nnnn1C1CCCCC1)N1CCOCC1` (configuration not stated) was tested. Which Potency did it give?
The Potency was inconclusive: 50.1 µM [inhibitor, partial curve, poor fit].

For `Cn1nnc(-c2ccc(OCc3ccccc3F)cc2)n1`, which “activity change, negative = inhibition” value is on record?
Its value is inactive: -3.64%.

Which “activity change, negative = inhibition” value does the source give for `CCn1c(CO)nc2c1c(=O)[nH]c(=O)n2Cc1ccccc1` here?
The value was inactive: 2.54%.

Which Potency does the source give for `N#CC(=C1Nc2ccccc2N1)S(=O)(=O)c1ccccc1` here?
Its Potency is inconclusive: 28.2 µM [inhibitor, full curve, poor fit].

For `CCn1c(CSCc2c(Cl)cccc2Cl)n[nH]c1=S`, which Potency is on record?
Its Potency is inconclusive: 50.1 µM [inhibitor, partial curve, poor fit].

How did the Potency turn out when `COc1ccccc1NC(=O)c1cc2ccccc2o/c1=N\O` was run?
The Potency was inconclusive: 89.1 µM [inhibitor, single point].

`COc1ccccc1C(=O)Nc1sc(Nc2ccccc2)nc1C(N)=O` was tested. Which Potency did it give?
The Potency was inconclusive: 79.4 µM [inhibitor, single point].

For `CC[C@]12c3[nH]c4cc(-c5ccco5)ccc4c3CCN1C(=O)[C@@H](CC(=O)NCCC1=CCCCC1)C[C@@H]2C(=O)N1CCN(C(=O)c2ccco2)CC1`, which Potency is on record?
The Potency was inconclusive: 44.7 µM [inhibitor, partial curve, poor fit].

For `CCOC(=O)N1CCC(NCCNC(=O)c2ccc(F)cc2)CC1`, which “activity change, negative = inhibition” value is on record?
Its value is inactive: -8.42%.

Which Potency does the source give for `CCN(CC)c1ccc(/C=N/Nc2ccccc2)c(O)c1` here?
The Potency was inconclusive: 56.2 µM [inhibitor, partial curve, poor fit].

For `COc1ccc(/C=C2\N=C(c3ccc(C)cc3)OC2=O)cc1`, which “activity change, negative = inhibition” value is on record?
The value was inactive: 9.39%.

With `O=S(=O)(c1cccnc1)N1CCN(c2nc(-c3cccs3)nc3ccccc23)CC1` as the compound, how does the “activity change, negative = inhibition” value read?
The value was inactive: 28.4%.

For `O=C(/C=C/c1ccco1)NCc1ccc2c(c1)OCO2`, which Potency is on record?
The Potency was inconclusive: 79.4 µM [inhibitor, partial curve, poor fit].

With `Cc1ccc(CNC(=O)CCCC(=O)Nc2cc(C)on2)cc1` as the compound, how does the Potency read?
Its Potency is inconclusive: 44.7 µM [inhibitor, partial curve, poor fit].

With `CCCNC(=O)C1CCC(Cn2c(=O)c3sccc3n(CC(=O)NCc3cccc(OC)c3OC)c2=O)CC1` (configuration not stated) as the compound, how does the “activity change, negative = inhibition” value read?
Its value is inactive: 19.1%.

Which “activity change, negative = inhibition” value does the source give for `O=C(COC(=O)c1ccccc1Cl)NCc1ccco1` here?
Its value is inactive: -17.5%.

`COc1ccc(-c2cc(C(F)(F)F)c3c(n2)sc2c(O)cc(=O)[nH]c23)c(OC)c1` was tested. Which Potency did it give?
Its Potency is inconclusive: 89.1 µM [inhibitor, single point].

`CCc1ccc(NC(=O)CSC2=C(C#N)C(c3ccco3)C3=C(CCCC3=O)N2)cc1` (configuration not stated) was tested. Which Potency did it give?
The Potency was inconclusive: 79.4 µM [inhibitor, partial curve, poor fit].

How did the Potency turn out when `CCOC(=O)C(NC(C)=O)(Nc1ccc(S(=O)(=O)Nc2cc(C)on2)cc1)C(F)(F)F` (configuration not stated) was run?
Its Potency is inconclusive: 89.1 µM [inhibitor, single point].

`COc1ccc(Cl)cc1NC(=O)Cn1nnc(C(=O)NCCc2ccc(OC)c(OC)c2)c1N` was tested. Which Potency did it give?
Its Potency is inconclusive: 20 µM [inhibitor, full curve, poor fit].

For `Cc1cccc(-n2nnnc2SCC(=O)Nc2ccc(N3CCN(C)CC3)cc2)c1`, which “activity change, negative = inhibition” value is on record?
The value was inactive: -41% [at 56.9 µM].

How did the Potency turn out when `CCSc1nnc2nc(C)cc(C)n12` was run?
The Potency was inconclusive: 89.1 µM [inhibitor, single point].
